Experimental data as given in PMC12040169 (PLOS Biology, 2025).
The other results are listed elsewhere or left out.

What follows are compounds tested on T1, C. trachomatis L2/434/Bu expressing GFP (CTL2-GFP). Details: total inclusion area; 28.5 h, 10 µM; inhibitor.
T1 construct: L2/434/Bu GFP intracellular growth in HeLa cells
Parameters: species or system HeLa; C. trachomatis total inclusion area by high-content imaging, normalised to DMSO
How it was run: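 Host cell viability was gauged from Hoechst-stained nuclei counts, while chlamydial growth was taken from total inclusion area and inclusion number per well. Cells were fixed and imaged by high-content microscopy once bulk GFP and resorufin fluorescence had been measured.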

First: O=C(Nc1ccccc1C(=O)N1CCN(Cc2ccccc2)CC1)c1ccc(F)cc1 [CBK264948]
Second: COc1ccc(CN2CCN(C(=O)c3ccccc3F)CC2)cc1OCc1ccccc1 [CBK263479]
The “% of control remaining” value of the first is lower: 110.727 for the first, 110.759 for the second.

First: COc1ccc(CCN(Cc2ccc(Cl)c(Cl)c2)C(=O)NCCCSC)cc1OC [CBK158758]
Second: COc1ccc(CNc2cccc(C(=O)O)c2C)cc1OC [CBK269634]
The “% of control remaining” value of the first is lower: 79.976 for the first, 106.319 for the second.

Compared with Nc1ncc(-c2cccc(O)c2)nc1-c1ccc(C(=O)NCCO)cc1 [CBK064143], NC(=O)c1ccc(-c2nccnc2NCCc2ccncc2)cc1 [CBK036644] is lower in “% of control remaining” value: 90.6785 for the first, 68.9092 for the second.

Going from O=c1c(N2CCNCC2)nccn1CCOc1cccc(Cl)c1Cl [CBK013463] to CC(C)OC(=O)Cn1c(C2CCNCC2)cc2cccnc21 [CBK285075], the “% of control remaining” value rises from 81.4952 to 105.549.

First: CCc1ccc(C(O)CNC2CCN(Cc3cscn3)CC2)cc1 (stereo not shown) [CBK304733]
Second: COc1ccccc1NC(=O)NC(=O)C1CCN(CCc2cccs2)CC1 [CBK034912]
The “% of control remaining” value of the first is lower: 18.6609 for the first, 96.5105 for the second.

Compared with CC(C)NCC(O)c1c2c(cc3c1CCC3)CCC2 (stereo not shown) [CBK012972F], COc1ccc(-c2nc(NC(=O)COc3ccc(C)c4c3CCC4)cnc2-c2ccc(F)cc2)cc1 [CBK036990] is higher in “% of control remaining” value: 77.629 for the first, 118.948 for the second.

First: O=C(O)/C=C/C(=O)N1N=C(c2ccc(F)cc2)CC12C(=O)Nc1ccccc12 (stereo not shown) [CBK286747]
Second: CC1(CCc2ccccc2)NC(=O)N(CC(=O)c2ccc(-c3ccccc3)cc2)C1=O (stereo not shown) [CBK297114]
The “% of control remaining” value of the first is lower: 93.5546 for the first, 96.9133 for the second.

First: COc1ccc(N2CCN(c3nc(N4CCOCC4)nc(N4CCOCC4)n3)CC2)cc1 [CBK264166]
Second: COc1ccnc(N2CCN(C(=O)c3cncnc3C)CC2)n1 [CBK304894]
The “% of control remaining” value of the first is lower: 94.2815 for the first, 132.912 for the second.

Compared with CCCNC(=O)CN1C(=O)N2CCCN=C2c2ccccc21 [CBK284405], CCC1CCCCN1C(=O)c1ccccc1C(=O)OC (stereo not shown) [CBK083196] is higher in “% of control remaining” value: 60.1106 for the first, 87.0325 for the second.

Compared with O=C(NCCc1ccco1)c1ncoc1-c1ccc(F)cc1 [CBK282247], O=C(O)c1cc(NC(=O)c2ccco2)cc(NC(=O)c2ccco2)c1 [CBK263388] is lower in “% of control remaining” value: 111.623 for the first, 108.631 for the second.

Going from c1ccc2oc([C@H]3CCN(C4CCOCC4)C3)nc2c1 [CBK289388] to CC(=O)N1CC[C@H]2NC(=O)CNC(=O)C3(CCCC[C@H]2C1)CCN(C(=O)COc1ccccc1)CC3 [CBK292101], the “% of control remaining” value falls from 106.865 to 96.8554.

First: O=Cc1c(-[n+]2ccc(-c3ccncc3)cc2)nc([O-])n1-c1ccccc1 [CBK261529]
Second: CC(C)c1ccc(/C=N/Nc2nc(-c3ccccc3)cs2)cc1 [CBK263091]
The “% of control remaining” value of the first is higher: 82.21 for the first, 80.4034 for the second.

First: CC(C)C(CCC(=O)Nc1ccc([N+](=O)[O-])cc1O)C(=O)O (stereo not shown) [CBK268464]
Second: CC(NC(=O)COc1ccc(Cl)cc1)C(=O)O (stereo not shown) [CBK262112]
The “% of control remaining” value of the first is lower: 96.3287 for the first, 120.784 for the second.

Compared with O=C1N=C(NC2C3CC4CC(C3)CC2C4)OC12CCN(CCC(F)(F)F)CC2 (stereo not shown) [CBK115640], CS(=O)(=O)NCC(=O)N1CCC2(CCCCOc3ccccc3C(=O)NCCNC2=O)CC1 [CBK292123] is higher in “% of control remaining” value: 74.4439 for the first, 95.9126 for the second.

Compared with CCC(=O)N1CCCCC(NS(=O)(=O)c2ccc(-n3cccn3)cc2)C1 (stereo not shown) [CBK307398], Cc1c(C(=O)N2CCC(c3cc4ncccc4[nH]3)CC2)cnn1C [CBK283384] is higher in “% of control remaining” value: 97.601 for the first, 109.408 for the second.

First: Cc1cc(CN(C)Cc2ccc3c(c2)n(C)c(=O)n3C)n[nH]1 [CBK281705]
Second: Cc1cccc(C(C)(C)C)c1OCCCCNCCN [CBK265092G]
The “% of control remaining” value of the first is lower: 56.31 for the first, 73.0694 for the second.

Compared with N#Cc1c(NC(=O)COc2ccc(Cl)cc2)oc(-c2ccccc2)c1-c1ccccc1 [CBK262938], CN(C)c1ccc(CC(=O)Nc2cnc(-c3cccc(C(F)(F)F)c3)c(-c3cccnc3)n2)cc1 [CBK036901] is higher in “% of control remaining” value: 71.9019 for the first, 112.626 for the second.

Going from CCSc1nn(CC)c2oc3c(c2c1=S)CC(C)(C)OC3 [CBK021960] to CCCn1c(SCC(=O)N2CCN(C(=O)c3cccs3)CC2)n[nH]c1=O [CBK297109], the “% of control remaining” value rises from 42.8199 to 90.8842.

First: COc1ccc2c(c1)C(O)C(NCc1ccccc1)C2 (stereo not shown) [CBK015469C]
Second: COc1ccc(C(C)C)cc1-c1nc(NS(C)(=O)=O)cc2ccccc12 [CBK073779]
The “% of control remaining” value of the first is lower: 75.7156 for the first, 111.27 for the second.

Going from CCOc1cccc(N2C(=O)c3cc(Br)ccc3NC2c2ccc(OC)c(OC)c2)c1 (stereo not shown) [CBK074502] to CCOc1ccc(NC(=O)C(C)O)c(NS(=O)(=O)c2ccc3ccccc3c2)c1 (stereo not shown) [CBK268309], the “% of control remaining” value falls from 95.2586 to 89.1024.
